In the supplement of paper PMC12340641:
Whole data set: some 1,000 compounds, median “relative growth recovery (pomalidomide 10 uM = 100%, DMSO = 0%)” near -1.6, cut for the highest 2% near 21. The list shows a part of the results.

The compounds below were run on HEK293FT dCK*-IKZF1 (assay: relative growth recovery (pomalidomide 10 uM = 100%, DMSO = 0%); higher = more growth rescue (IKZF1 fusion degradation)). Conditions: compound concentration: 5 uM; AraC concentration: 0.3 uM; overnight pretreatment + 4 days AraC.
Method: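 Growth recovery screen of the molecular-glue-like (Specs) library. HEK293FT cells expressing a dCK*-IKZF1 fusion (primary) or dCK* alone (counter) were pretreated overnight with compound at 5 uM, then given 0.3 uM AraC for 4 days. Hoechst nuclei were counted by imaging. Primary: normalised to pomalidomide (100%) and DMSO (0%), mean of 2 replicates. Counter: normalised to no-AraC (100%) and AraC+DMSO (0%), single replicate.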
Work on Cc1ccnc(NS(=O)(=O)c2ccc(NC(=O)C3c4ccccc4Oc4ccccc43)cc2)n1 yielded a relative growth recovery of -0.965%.
For Cc1cc(C)nc(NS(=O)(=O)c2ccc(Nc3nc(-c4c(C)nc5ccccn45)cs3)cc2)n1, the relative growth recovery was -2.69%.
COc1ccccc1CCC(=O)N1CCC(c2cccc(Nc3ncc(C)s3)n2)CC1 showed a relative growth recovery of 19%.
With Cc1cnc(Nc2cccc(CC3CCN(C(=O)c4cccc(Cl)c4)CC3)n2)s1 the relative growth recovery was -11.5%.
Cc1ccc(Nc2nc(C3CCCN(CC(N)=O)C3)cs2)nc1 (stereo not given) showed a relative growth recovery of -5.75%.
For COc1ccc(CCC(=O)N2CCOC(c3cccc(Nc4nc(C)cs4)n3)C2)cc1 (stereo not given), the relative growth recovery was 32.4%.
CC(=O)Nc1ccc(Oc2ccc3c(c2)C(=O)N(c2ccc4ccccc4c2)C3=O)cc1 gave a relative growth recovery of -1.51%.
Cc1nc(Nc2cccc(C3CCCN3C(=O)COc3ccc(F)cc3)n2)sc1C (stereo not given) gave a relative growth recovery of 14.4%.
With CCOc1ccccc1C(=O)Nc1ccc(S(=O)(=O)Nc2nc(C)cc(C)n2)cc1 the relative growth recovery was 2.54%.
For O=C(Nc1ccc(S(=O)(=O)Nc2ncccn2)cc1)c1cncc(Br)c1, the relative growth recovery was -2.98%.
For CC(C)(C)N1CC(C(=O)Nc2ccc(S(=O)(=O)Nc3ncccn3)cc2)CC1=O (stereo not given), the relative growth recovery was 1.21%.
In the case of O=C(COc1cccc(Cl)c1)Nc1ccc(S(=O)(=O)Nc2ccccn2)cc1, the relative growth recovery was -0.93%.
In the case of Cc1ccc(C(=O)Nc2ccc(S(=O)(=O)Nc3ccccn3)cc2)cc1C, the relative growth recovery was -2.5%.
CCCOc1cccc(C(=O)Nc2ccc(S(=O)(=O)Nc3nc(C)cc(C)n3)cc2)c1 was tested, and the relative growth recovery was -1.4%.
With COC(=O)C(c1cccc(Nc2ncc(C)s2)n1)C1CCN(C(=O)c2cccc(F)c2F)CC1 (stereo not given) the relative growth recovery was -0.07%.
Compound COCC(=O)N1CCC(c2cccc(Nc3nc(C)cs3)n2)CC1 has a relative growth recovery of 8.4%.
Compound Cc1ccc2[nH]c3nc(SCC(=O)Nc4cc(Cl)ccc4C)nnc3c2c1 has a relative growth recovery of 1.78%.
Work on Cc1csc(Nc2cccc(C3CCCN3C(=O)CO)n2)n1 (stereo not given) yielded a relative growth recovery of 1.4%.
In the case of COc1cccc(OC)c1C(=O)N1CCOC(c2cccc(Nc3ncc(C)s3)n2)C1 (stereo not given), the relative growth recovery was 1.18%.
In the case of Cc1cc(C)nc(NS(=O)(=O)c2ccc(NC(=O)CSc3nc4c(cc3C#N)CCC4)cc2)n1, the relative growth recovery was -6.17%.
For COC(=O)C(c1cccc(Nc2ncc(C)s2)n1)C1CCN(C(=O)C2(NC(=O)OC(C)(C)C)CCCCC2)CC1 (stereo not given), the relative growth recovery was -4.12%.
Compound CNC(=O)C1(c2cccc(Nc3ncc(C)s3)n2)CN(S(=O)(=O)c2cn(C)cn2)CCO1 (stereo not given) has a relative growth recovery of 0.555%.
Cc1ccc(Nc2nc(-c3sc(NC(=O)c4ccccc4)nc3C)cs2)nc1 gave a relative growth recovery of 111%.
In the case of NCC(=O)N1CCC(c2cccc(Nc3ncc(Cl)s3)n2)CC1, the relative growth recovery was -19.4%.
COc1cccc(C(=O)Nc2ccc(S(=O)(=O)Nc3nc(C)cc(C)n3)cc2)c1 gave a relative growth recovery of -1.65%.
Compound Cn1cc(/C=C/C(=O)N2CCC(c3cc4ccccc4c(Nc4nccs4)n3)CC2)cn1 has a relative growth recovery of -18.7%.
In the case of CCC(CC)C(=O)Nc1ccc(S(=O)(=O)Nc2ncccn2)cc1, the relative growth recovery was -0.205%.
Work on CCCCc1cnc(Nc2cccc(C3CCN(C(=O)C(C)(C)NC(=O)OC(C)(C)C)CC3)n2)s1 yielded a relative growth recovery of -15.7%.
Work on NC(=O)CN1CCCC1c1csc(Nc2ccccn2)n1 (stereo not given) yielded a relative growth recovery of -2.02%.
Cc1cnc(Nc2cccc(C3CN(C(=O)C4CC4c4ccc(Cl)cc4)CCO3)n2)s1 (stereo not given) was tested, and the relative growth recovery was 28.4%.
In the case of COc1ccccc1N1C(=O)c2ccc(Oc3ccc(N)cc3)cc2C1=O, the relative growth recovery was 2.65%.
COc1cc(NS(=O)(=O)c2ccc(Nc3nc(-c4cccs4)cs3)cc2)nc(OC)n1 showed a relative growth recovery of 0.1%.
Compound O=C(Nc1ccc(S(=O)(=O)Nc2ncccn2)cc1)c1ccc([N+](=O)[O-])cc1 has a relative growth recovery of -0.33%.
With COc1ccc(-c2csc(Nc3ccc(S(=O)(=O)Nc4nc(C)cc(C)n4)cc3)n2)cc1 the relative growth recovery was -3.44%.
Cc1ccn(CCC(=O)N2CCC(c3cccc(Nc4ncc(C)s4)n3)CC2)n1 showed a relative growth recovery of -3.61%.
N#CCN1CCCC(c2cccc(Nc3nc(C(=O)N4CCNC(=O)C4)cs3)n2)C1 (stereo not given) showed a relative growth recovery of 5.07%.
Compound Cc1ccc(CCC(=O)Nc2ccc(S(=O)(=O)Nc3ncccn3)cc2)cc1 has a relative growth recovery of 0.96%.
O=S(=O)(Nc1ccc(S(=O)(=O)Nc2ncccn2)cc1)c1ccccc1 showed a relative growth recovery of 2.94%.
Cc1nc(Nc2cccc(C3CCCN3C(=O)CCc3nc4ccccc4[nH]3)n2)sc1C (stereo not given) gave a relative growth recovery of -2.88%.
Nc1ccc(Oc2ccc3c(c2)C(=O)N(c2ccccc2)C3=O)cc1 was tested, and the relative growth recovery was 2.54%.
Work on O=C(/C=C/c1ccccc1)N1CCCC1c1csc(Nc2ccccn2)n1 (stereo not given) yielded a relative growth recovery of -2.08%.
Work on CN(C)C(=O)CN1CCC(c2csc(Nc3ccccn3)n2)CC1 yielded a relative growth recovery of 2.02%.
Cc1ccnc(NS(=O)(=O)c2ccc(NC(=O)CSc3nc(C)cc(=O)[nH]3)cc2)n1 showed a relative growth recovery of -2.31%.
Compound CC(C)(C)C(=O)Nc1ccc(S(=O)(=O)Nc2ccccn2)cc1 has a relative growth recovery of -3.33%.
CC1CCN(C(=O)CN2CCC(c3cccc(Nc4nccs4)n3)CC2)CC1 showed a relative growth recovery of -1.4%.
COc1cc(NS(=O)(=O)c2ccc(NC(=O)c3ccc(-c4ccccc4)cc3)cc2)nc(OC)n1 showed a relative growth recovery of -2.57%.
With CC(C)(C)C(=O)N1CCOC(c2cccc(Nc3ncc(Cc4ccccc4)s3)n2)C1 (stereo not given) the relative growth recovery was -3.79%.
In the case of CC(C)CC(C(=O)Nc1ccc(S(=O)(=O)Nc2ccccn2)cc1)N1C(=O)c2ccccc2C1=O (stereo not given), the relative growth recovery was 1.38%.
Work on CC1Cc2cc(CCC(=O)N3CCC(c4cccc(Nc5nccs5)n4)CC3)ccc2O1 (stereo not given) yielded a relative growth recovery of -0.495%.
Cc1cnc(Nc2cccc(C3CN(C(=O)C4(c5ccccc5)CCCC4)CCO3)n2)s1 (stereo not given) showed a relative growth recovery of -1.48%.
Compound CC(=O)N1CCC(Cc2cccc(Nc3nc(C)cs3)n2)CC1 has a relative growth recovery of 10.6%.
Compound CCOCc1ccc(C(=O)N2CCOC(c3cccc(Nc4nccs4)n3)C2)cc1 (stereo not given) has a relative growth recovery of 5.5%.
In the case of Cc1cnc(Nc2cccc(C3CN(C(=O)CCc4ccc(S(N)(=O)=O)cc4)CCO3)n2)s1 (stereo not given), the relative growth recovery was 0.615%.
In the case of COc1cc(NS(=O)(=O)c2ccc(NC(=O)COc3ccccc3C)cc2)nc(OC)n1, the relative growth recovery was -12.5%.
With Cc1nc(Nc2cccc(C3CCN(C(=O)C(C)C)CC3)n2)sc1C the relative growth recovery was 11.3%.
With O=C1CCC(N2C(=O)c3cccc(N4CCC(C(=O)O)CC4)c3C2=O)C(=O)N1 (stereo not given) the relative growth recovery was 7.4%.
Work on CC(=O)Oc1ccccc1N1C(=O)c2ccc(Oc3ccc(N)cc3)cc2C1=O yielded a relative growth recovery of -0.21%.
Cc1csc(Nc2cccc(C3CN(C(=O)Cn4nc(C)ccc4=O)CCO3)n2)n1 (stereo not given) gave a relative growth recovery of 1.32%.
Work on CC(=O)Nc1ccc(S(=O)(=O)N(C#N)c2nc(C)cc(C)n2)cc1 yielded a relative growth recovery of 4.26%.
In the case of Cc1nc(Nc2cccc(C3CCCN3C(=O)CCN3C(=O)CCNC3=O)n2)sc1C (stereo not given), the relative growth recovery was 0.56%.
With O=[N+]([O-])c1ccc(S(=O)(=O)Nc2nc3ccccc3nc2Nc2ccccc2)cc1 the relative growth recovery was 8.16%.
Cc1cc(C)nc(NS(=O)(=O)c2ccc(NC(=O)CSc3nccn3C)cc2)n1 was tested, and the relative growth recovery was -7.77%.
Work on O=C(C1CCCCC1)N1CCC(c2cccc(Nc3ncc(Cl)s3)n2)CC1 yielded a relative growth recovery of 0.27%.
C[C@@H](N)C(=O)N1CCC(CO)(c2cccc(Nc3ncc(-c4ccccc4)s3)n2)CC1 gave a relative growth recovery of -18.2%.
CCCc1cnc(Nc2cccc(C3CCN(C(=O)[C@@H]4CCCCN4C(=O)OC(C)(C)C)CC3)n2)s1 was tested, and the relative growth recovery was -13.7%.
Cc1cc(C)c2[nH]c3nc(SCC(=O)Nc4cc(Cl)ccc4C)nnc3c2c1 showed a relative growth recovery of -3.62%.
In the case of Cc1ccc2[nH]c3nc(SCC(=O)Nc4cccc(Cl)c4)nnc3c2c1, the relative growth recovery was -6.41%.
With CC(=O)Nc1cc(C)c(S(=O)(=O)N2CCOC(c3cccc(Nc4ncc(C)s4)n3)C2)cc1C (stereo not given) the relative growth recovery was 9.32%.
O=C(Cc1ccc(F)cc1)N1CCCC1c1cccc(Nc2nccs2)n1 (stereo not given) was tested, and the relative growth recovery was 10.4%.
With O=C(CSc1nnc2c(n1)[nH]c1ccccc12)Nc1ccc(F)cc1 the relative growth recovery was 7.2%.
Cc1cnc(Nc2cccc(C3CN(C(=O)CNc4ccccc4)CCO3)n2)s1 (stereo not given) showed a relative growth recovery of -13.3%.
With Cc1ccc(Oc2cccc(N3C(=O)c4ccc(Oc5ccc(N)cc5)cc4C3=O)c2)cc1C the relative growth recovery was -3.76%.
Cc1ccc(C)c(OCC(=O)Nc2ccc(S(=O)(=O)Nc3ncccn3)cc2)c1 showed a relative growth recovery of -18.5%.
In the case of CCCc1cnc(Nc2cccc(C3CCN(C(=O)C(C)(C)NC(=O)COC)CC3)n2)s1, the relative growth recovery was 0.245%.
With Cc1ccc(CC(=O)N2CCOC(c3cccc(Nc4nc(C)c(C)s4)n3)C2)cc1C (stereo not given) the relative growth recovery was 12.3%.
In the case of COC(=O)c1ccc(N2C(=O)c3ccc(Oc4cccc(N)c4)cc3C2=O)cc1, the relative growth recovery was 1.72%.
Cc1noc(CCC(=O)N2CCOC(c3cccc(Nc4nc(C)c(C)s4)n3)C2)n1 (stereo not given) showed a relative growth recovery of 3.4%.
CC(=O)Oc1cccc(N2C(=O)c3ccc(Oc4cccc(N)c4)cc3C2=O)c1 was tested, and the relative growth recovery was -0.785%.
Work on Cc1ccc2[nH]c3nc(SCC(=O)Nc4ccc(C)c(Cl)c4)nnc3c2c1 yielded a relative growth recovery of -24.6%.
In the case of Cc1ccc(OCCCC(=O)Nc2ccc(S(=O)(=O)Nc3ccccn3)cc2)cc1, the relative growth recovery was 2.46%.
O=C(Nc1ccc(S(=O)(=O)Nc2ncccn2)cc1)C1CC(=O)N(c2ccc(Cl)cc2)C1 (stereo not given) showed a relative growth recovery of 5.58%.
For Cc1cccc(Nc2nc(-c3sc(NC(=O)c4ccccc4)nc3C)cs2)n1, the relative growth recovery was 121%.
For COCCOCC(=O)Nc1ccc(S(=O)(=O)Nc2nc(C)cc(C)n2)cc1, the relative growth recovery was -4.72%.
Work on CC1(C)C=C(CC(=O)N2CCOC(c3cccc(Nc4nccs4)n3)C2)CC(C)(C)N1 (stereo not given) yielded a relative growth recovery of -3.67%.
Cc1ccc(C(=O)Nc2ccc(S(=O)(=O)Nc3cc(C)nc(C)n3)cc2)cc1 showed a relative growth recovery of -1.57%.
Cc1cnc(Nc2cccc(C3CCN(C(=O)C4(N)CCCCC4)CC3)n2)s1 gave a relative growth recovery of -17.6%.
Compound Cc1cnc(Nc2cc(C3CCN(C(=O)/C=C/c4cnc[nH]4)CC3)ccn2)s1 has a relative growth recovery of -3.89%.
With CCCC(=O)Nc1ccc(S(=O)(=O)Nc2nc(C)cc(C)n2)cc1 the relative growth recovery was -4.25%.
Cc1cnc(Nc2cccc(C3(COC(=O)C4CCCCC4)CCN(C(=O)C4CCCCC4)CC3)n2)s1 was tested, and the relative growth recovery was -9.19%.
Compound Nc1ccc(S(=O)(=O)Nc2nccc(/C=C/c3ccc(Cl)cc3)n2)cc1 has a relative growth recovery of -0.605%.
Compound CCCc1cnc(Nc2cccc(C3CCN(C(=O)C(C)(C)NC(=O)OC(C)(C)C)CC3)n2)s1 has a relative growth recovery of -14.9%.
Compound Cc1csc(Nc2cccc(C3CCCN3C(=O)Cc3ccc(F)cc3)n2)n1 (stereo not given) has a relative growth recovery of 3.22%.
Work on CCc1nnsc1C(=O)N1CCCC1c1cccc(Nc2nc(C)cs2)n1 (stereo not given) yielded a relative growth recovery of 2.26%.
Work on COc1ccc(Cl)cc1NC(=O)CSc1nnc2c(n1)[nH]c1ccc(F)cc12 yielded a relative growth recovery of -1.31%.
Work on Cc1cnc(Nc2cccc(C3CCN(C(=O)C4(C)CCCCC4)CC3)n2)s1 yielded a relative growth recovery of -9.22%.
